Substitutions are numbered along the chain they refer to. Numbers in names are those of the source. These are yes or no findings as the source states them, for the method shown. For some of these results: Binding seen in cells or lysates may run through a third protein. Some results given as binding are weak or reduced against the parent protein; the word gives no strength. For some of these results: Sequences can lack the tags named with a protein.
Columns and labels:
[1] = molecular target: T1, GOLPH2-Δ(IV–V) (amino acids 1–205) (human) (UniProt Q8NBJ4); assay: co-IP; HeLa cells co-transfected with FLAG-tagged fragments and untagged full-length GOLPH2; 1% Triton X-100 lysis buffer (20 mM HEPES pH 7.3, 100 mM KCl, 5 mM EDTA), anti-FLAG M2, protein A/G beads, 4°C; immunoblot with GOLPH2 antibody
T1 sequence: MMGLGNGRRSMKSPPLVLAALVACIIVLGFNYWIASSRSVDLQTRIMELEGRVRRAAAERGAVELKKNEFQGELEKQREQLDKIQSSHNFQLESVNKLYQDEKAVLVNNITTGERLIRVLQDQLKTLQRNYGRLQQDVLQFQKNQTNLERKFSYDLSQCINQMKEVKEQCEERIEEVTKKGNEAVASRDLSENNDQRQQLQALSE

[2] = molecular target: T2, GOLPH2-Δ(I–II–III) (amino acids 206–401) (human) (UniProt Q8NBJ4); assay: as above
T2 sequence: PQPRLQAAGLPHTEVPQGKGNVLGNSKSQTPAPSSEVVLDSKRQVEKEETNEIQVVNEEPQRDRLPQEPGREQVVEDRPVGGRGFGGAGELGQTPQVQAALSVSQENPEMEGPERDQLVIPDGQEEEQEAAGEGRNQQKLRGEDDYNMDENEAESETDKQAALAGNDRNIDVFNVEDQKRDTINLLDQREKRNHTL

[3] = molecular target: T3, GOLPH2-Δ(I–II–IV–V) (amino acids 56–205) (human) (UniProt Q8NBJ4); assay: as above
T3 sequence: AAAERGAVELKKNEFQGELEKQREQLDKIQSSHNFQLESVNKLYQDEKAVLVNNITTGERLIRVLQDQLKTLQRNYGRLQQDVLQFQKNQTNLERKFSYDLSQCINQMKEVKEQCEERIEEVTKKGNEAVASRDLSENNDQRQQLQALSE

[4] = molecular target: T4, GOLPH2-III–IV–V (two-hybrid fragment) (human) (UniProt Q8NBJ4); assay: two-hybrid; Matchmaker GAL4 Two-Hybrid System 3; AH109 (pGBKT7 fusions) mated with Y187 (pGADT7 fusions); growth on SD/-Trp/-Leu/-His/-Ade (++) or SD/-Trp/-Leu/-Ade with 1 mM 3-AT (+), 30°C, 3 d to 8 d
T4 sequence: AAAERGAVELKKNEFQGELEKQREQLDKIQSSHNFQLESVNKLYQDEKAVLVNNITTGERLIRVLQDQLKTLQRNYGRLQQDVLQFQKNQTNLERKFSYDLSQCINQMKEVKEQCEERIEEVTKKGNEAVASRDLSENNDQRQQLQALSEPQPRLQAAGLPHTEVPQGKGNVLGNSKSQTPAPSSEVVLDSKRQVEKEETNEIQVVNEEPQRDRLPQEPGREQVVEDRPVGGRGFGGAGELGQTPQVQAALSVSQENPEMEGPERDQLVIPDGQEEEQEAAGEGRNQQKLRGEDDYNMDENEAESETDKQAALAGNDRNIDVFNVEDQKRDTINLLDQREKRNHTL

[5] = molecular target: T5, GOLPH2-IIIA (amino acids 56–152) (human) (UniProt Q8NBJ4); assay: as above
T5 sequence: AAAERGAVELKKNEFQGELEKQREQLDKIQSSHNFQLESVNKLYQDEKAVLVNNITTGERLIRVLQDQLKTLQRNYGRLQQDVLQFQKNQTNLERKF

[6] = molecular target: intracellular GOLPH2 from HeLa cell lysate (human (endogenous in HeLa)) (UniProt Q8NBJ4); assay: SDS-PAGE under non-reducing and reducing conditions with immunoblot; HeLa cell lysate, normal human urine or HeLa supernatant boiled with 0 or 140 mM 2-mercaptoethanol; immunoblot with GOLPH2 antibody
[7] = molecular target: GOLPH2-FLAG (wild-type, full length) (human) (UniProt Q8NBJ4); assay: SDS-PAGE under non-reducing conditions with immunoblot; lysates of HeLa cells 36 h after transfection with pCR3.1-GOLPH2-FLAG or mutants; immunoblot with FLAG antibody
[8] = molecular target: GOLPH2-FLAG C159A (human) (UniProt Q8NBJ4); assay: as above
[9] = molecular target: GOLPH2-FLAG C170A (human) (UniProt Q8NBJ4); assay: as above
[10] = molecular target: GOLPH2-Δ(1–55) C159A-C170A (human) (UniProt Q8NBJ4); assay: condition: only in SDS (non-reducing SDS-PAGE, which keeps only disulfide-linked dimers); SDS-PAGE under non-reducing and reducing conditions; purified GOLPH2-Δ(1–55) and cysteine mutants boiled with 0 to 100 mM 2-mercaptoethanol, 10% SDS-PAGE; shows disulfide-linked oligomers; both purified
[11] = molecular target: T6, GOLPH2 IV (two-hybrid fragment) (human) (UniProt Q8NBJ4); assay: two-hybrid; Matchmaker GAL4 Two-Hybrid System 3; AH109 (pGBKT7 fusions) mated with Y187 (pGADT7 fusions); growth on SD/-Trp/-Leu/-His/-Ade (++) or SD/-Trp/-Leu/-Ade with 1 mM 3-AT (+), 30°C, 3 d to 8 d
T6 sequence: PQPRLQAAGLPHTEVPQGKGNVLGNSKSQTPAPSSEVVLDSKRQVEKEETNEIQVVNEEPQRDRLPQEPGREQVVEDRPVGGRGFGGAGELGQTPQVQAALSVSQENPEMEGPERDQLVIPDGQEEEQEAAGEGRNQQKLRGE

[12] = molecular target: T7, GOLPH2 V (two-hybrid fragment) (human) (UniProt Q8NBJ4); assay: as above
T7 sequence: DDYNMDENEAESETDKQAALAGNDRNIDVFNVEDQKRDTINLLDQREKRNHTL

B1: full length GOLPH2 (without FLAG tag) (protein, UniProt Q8NBJ4 1-401)
chain: MMGLGNGRRSMKSPPLVLAALVACIIVLGFNYWIASSRSVDLQTRIMELEGRVRRAAAERGAVELKKNEFQGELEKQREQLDKIQSSHNFQLESVNKLYQDEKAVLVNNITTGERLIRVLQDQLKTLQRNYGRLQQDVLQFQKNQTNLERKFSYDLSQCINQMKEVKEQCEERIEEVTKKGNEAVASRDLSENNDQRQQLQALSEPQPRLQAAGLPHTEVPQGKGNVLGNSKSQTPAPSSEVVLDSKRQVEKEETNEIQVVNEEPQRDRLPQEPGREQVVEDRPVGGRGFGGAGELGQTPQVQAALSVSQENPEMEGPERDQLVIPDGQEEEQEAAGEGRNQQKLRGEDDYNMDENEAESETDKQAALAGNDRNIDVFNVEDQKRDTINLLDQREKRNHTL
binding [1]: binds | binding [2]: no binding | binding [3]: binds

B2: GOLPH2-IIIA (amino acids 56–152) (domain or fragment, UniProt Q8NBJ4 56-152)
chain: T5 sequence
binding [4]: binds | binding [5]: binds

B3: GOLPH2-Δ(1–55) (domain or fragment, human, UniProt Q8NBJ4 56-401, looked up)
chain: T4 sequence
notes: Golgi phosphoprotein 2 (GOLPH2, GP73, GOLM1), human, residues 1-55 deleted; C-terminal luminal region, amino acids 56-401; also called purified wild-type GOLPH2; GOLPH2-Δ(1–55) fusion protein; source: E. coli BL21 (DE3), pET22b(+), purified (Ni-NTA)
binding [4]: binds | binding [5]: binds

B4: intracellular GOLPH2 from HeLa cell lysate (protein, UniProt Q8NBJ4 1-401)
chain: B1 chain
binding [6]: binds

B5: GOLPH2-FLAG (wild-type, full length) (natural protein, human, UniProt Q8NBJ4 1-401, looked up)
chain: B1 chain
notes: Golgi phosphoprotein 2 (GOLPH2, GP73, GOLM1), human, full-length cDNA from Huh7 cells; also called pCR3.1-GOLPH2-FLAG; wild-type GOLPH2; source: HeLa, transfected, in lysate; not shown: FLAG, C-terminal, kept
binding [7]: binds

B6: GOLPH2-FLAG C159A (protein, UniProt Q8NBJ4 1-401)
chain: B1 chain with C159A
binding [8]: binds

B7: GOLPH2-FLAG C170A (protein, UniProt Q8NBJ4 1-401)
chain: B1 chain with C170A
binding [9]: binds

B8: GOLPH2-Δ(1–55) C159A-C170A (domain or fragment, human, UniProt Q8NBJ4 56-401, looked up)
chain: T4 sequence with C104A, C115A
notes: GOLPH2 (GP73, GOLM1), human, residues 1-55 deleted (amino acids 56-401), C159A and C170A; Monomer on non-reducing SDS-PAGE, same migration as the wild type on native-PAGE; also called double mutant C159A–C170A; source: E. coli BL21 (DE3), pET22b(+), purified (Ni-NTA)
binding [10]: no binding

B9: GOLPH2-IIIB (amino acids 153–205) (domain or fragment, UniProt Q8NBJ4 153-205)
chain: SYDLSQCINQMKEVKEQCEERIEEVTKKGNEAVASRDLSENNDQRQQLQALSE
binding [4]: no binding | binding [5]: no binding | binding [11]: no binding | binding [12]: no binding

— PMC3226628, “The Golgi Localization of GOLPH2 (GP73/GOLM1) Is Determined by the Transmembrane and Cytoplamic Sequences” (PLoS ONE, 2011)
